Publication PMC4336329 (PLoS ONE, 2015)
About 14,000 (4.5%) of roughly 310,000 compounds showed an effect of 50% or more. Effects have a minus sign here. The list shows a part of the results.

Each compound was assayed against human ether-à-go-go-related gene (hERG) potassium channel (human, UniProt Q12809) (assay: primary screen, population patch clamp on CHO cells stably expressing hERG).
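Note: peak tail current of the secondary pulse compared with the same well before compound.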

Chain of human ether-à-go-go-related gene (hERG) potassium channel (Q12809 whole entry, looked up): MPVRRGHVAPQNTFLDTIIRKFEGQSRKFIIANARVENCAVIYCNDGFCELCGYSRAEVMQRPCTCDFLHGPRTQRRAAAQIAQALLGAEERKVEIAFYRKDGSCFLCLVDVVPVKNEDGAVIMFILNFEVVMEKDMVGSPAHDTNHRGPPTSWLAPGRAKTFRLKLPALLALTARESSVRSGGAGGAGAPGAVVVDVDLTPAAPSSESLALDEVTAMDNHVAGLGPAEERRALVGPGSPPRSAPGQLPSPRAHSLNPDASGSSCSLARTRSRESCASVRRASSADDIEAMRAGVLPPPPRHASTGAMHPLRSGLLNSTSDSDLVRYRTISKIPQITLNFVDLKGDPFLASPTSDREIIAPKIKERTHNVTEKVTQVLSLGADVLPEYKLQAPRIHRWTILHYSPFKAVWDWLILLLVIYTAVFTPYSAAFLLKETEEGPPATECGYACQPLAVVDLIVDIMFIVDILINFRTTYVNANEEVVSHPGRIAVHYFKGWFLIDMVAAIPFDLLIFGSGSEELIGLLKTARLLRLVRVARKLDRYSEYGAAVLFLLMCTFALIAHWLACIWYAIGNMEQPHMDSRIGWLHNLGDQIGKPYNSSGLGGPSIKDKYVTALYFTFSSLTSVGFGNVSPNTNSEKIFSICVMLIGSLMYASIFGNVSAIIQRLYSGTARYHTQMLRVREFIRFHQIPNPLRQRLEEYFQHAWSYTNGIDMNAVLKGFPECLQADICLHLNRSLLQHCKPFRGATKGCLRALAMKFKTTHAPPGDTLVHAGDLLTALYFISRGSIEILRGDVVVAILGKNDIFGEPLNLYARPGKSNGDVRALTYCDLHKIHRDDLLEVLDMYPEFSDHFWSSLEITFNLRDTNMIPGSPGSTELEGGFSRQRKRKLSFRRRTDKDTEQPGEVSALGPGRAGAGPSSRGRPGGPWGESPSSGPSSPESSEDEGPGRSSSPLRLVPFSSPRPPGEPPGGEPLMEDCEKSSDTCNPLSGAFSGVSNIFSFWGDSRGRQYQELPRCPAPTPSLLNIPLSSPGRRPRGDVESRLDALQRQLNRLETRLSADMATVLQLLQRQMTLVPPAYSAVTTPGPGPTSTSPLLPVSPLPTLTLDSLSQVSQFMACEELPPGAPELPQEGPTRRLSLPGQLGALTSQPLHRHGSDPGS

| SMILES | hERG current change (%, negative = inhibition) at 10uM [%] |
| --- | --- |
| Cc1cccc(N/C(N)=N/c2nc(C(F)(F)F)cc(=O)[nH]2)c1C | 9.5 |
| CCOC(=O)N1CCN(C2CC(=O)N(c3ccc(C)cc3)C2=O)CC1 (stereo not shown) | 1.62 |
| CSCC(C)N1CCC(n2nccc2NC(=O)c2ccc3c(c2)OCO3)CC1 (stereo not shown) | -2.95 |
| O=C(c1ccco1)N1CCN(Cc2csc(-c3ccccc3Cl)n2)CC1 | -64.9 |
| N#CCC(=O)Nc1ccc(C(=O)OCC(=O)Nc2ccc3ccccc3c2)cc1 | 5.71 |
| O=C(NC1CCN(C(=O)NCc2ccccc2)CC1)c1ccccc1 | 13.3 |
| Nc1ccc2c(c1)C(=O)C(=O)c1ccccc1-2 | -3.14 |
| O=C(CN(Cc1ccccc1Cl)C(=O)c1ccc(CN2CCOCC2)o1)NCC1CCCO1 (stereo not shown) | 14.2 |
| Cc1ccc2nc(Nc3ccccc3)c(C=O)c(=O)n2c1 | 4.99 |
| c1ccc(N2CCN(c3ccccc3)C2c2cccnc2)cc1 | 1.84 |
| CCC(=O)c1ccc(N2CCOCC2)c(F)c1 | 3.96 |
| CC(C)NC(=O)CSCc1c(F)cccc1Cl | 13 |
| Cc1ccc(NC(=O)CSc2nnc(C(F)(F)F)n2C)cc1[N+](=O)[O-] | -73.6 |
| Cc1cccc(Nc2ncccc2C(=O)O)c1C | 14.8 |
| COc1ccc(N2C(=O)NC(NS(=O)(=O)c3ccccc3)(C(F)(F)F)C2=O)cc1 (stereo not shown) | 2 |
| O=C(/C=C/NCc1cccnc1)c1ccc(Br)cc1 | -40.7 |
| CC(C)N(Cc1nc(-c2ccccc2)no1)C(=O)C(C)(C)C | -9.09 |
| COCCN=C1NN=C(c2ccc(C)c([N+](=O)[O-])c2)CS1 | 11.7 |
| COc1ccc(-c2[nH]ncc2/C=N\NS(=O)(=O)c2ccc(Cl)cc2)cc1 | -8.03 |
| Cc1ccc(C(=O)Nc2ccon2)cc1S(=O)(=O)N1CCOCC1 | -8.03 |

| SMILES | hERG current change (%, negative = inhibition) at 10uM [%] |
| --- | --- |
| CC(C)n1cc(NC(=O)C2CC(c3cccc(Br)c3)=NO2)cn1 (stereo not shown) | -6.11 |
| COc1cc2cc(C(=O)N/N=C/c3ccccc3Cl)[nH]c2cc1OC | 18.5 |
| Cc1ccc(C)c(N2CCN(S(=O)(=O)c3ccc4c(c3)NC(=O)CC(=O)N4)CC2)c1 | -27.2 |
| COc1ccc(NC(=O)/C=N/O)cc1 | 13.2 |
| O=C(Nc1cccc([N+](=O)[O-])c1)c1ccc2ccccc2c1O | 20.1 |
| CC(OC(=O)C1CC(=O)N(Cc2ccccc2)C1)C(=O)Nc1ccc(F)cc1Cl (stereo not shown) | -26.8 |
| Cc1ccc(-n2c(C)cc(C(=O)CN3CCCCC3)c2C)cc1 | -31.9 |
| Cc1cc(-c2nc3ccccc3o2)c2ccccc2n1 | -1.57 |
| CCCCNC(=O)c1ccccc1SCc1c(C)noc1C | -1.59 |
| CCc1cc(C(=O)N2CCOCC2)c(NC2=NS(=O)(=O)c3ccccc32)s1 | 0.974 |
| Cc1ccc(N2CCN(CCc3nc4cc(NS(C)(=O)=O)ccc4n3C)CC2)cc1 | -59.8 |
| O=C(O)CN1C(=O)C2(OCCCO2)c2ccccc21 | -18.5 |
| COc1ccc(NC(=O)c2c(-c3ccccc3Cl)noc2C)c(OC)c1 | 4.25 |
| CN(C)S(=O)(=O)c1cccc(NC(=O)COc2cccc(C#N)c2)c1 | -27 |
| O=C(Cc1cccs1)Nc1cccc(-c2nc3ccccc3o2)c1 | 4.75 |
| CN(CC(=O)Nc1ccc2c(c1)OCO2)S(=O)(=O)c1ccc(F)cc1 | -4.45 |
| CC1CCC(C#N)(N(C)C(=O)CSc2nnc(C3CC3)n2C2CC2)CC1 (stereo not shown) | -14.3 |
| CCC(C)[C@H](NC(=O)c1cc2cc(Cl)ccc2n1C)C(=O)N1CCC(C(=O)O)CC1 (stereo partly shown) | 20.1 |
| CCOc1ccc(C(CC(=O)O)NC(=O)C23CC4CC(CC(C4)C2)C3)cc1 (stereo not shown) | -6.54 |
| CCCCC/C(=N\NC(=O)Nc1ccccc1)c1ccccc1 | 8.43 |

| SMILES | hERG current change (%, negative = inhibition) at 10uM [%] |
| --- | --- |
| CCCCc1nnc(NC(=O)CN2C(=O)NC3(CCCCC3)C2=O)s1 | -5.43 |
| CCOc1cccc(CN2CCN(CCCc3ccccc3)C(CCO)C2)c1O (stereo not shown) | -76.3 |
| CCOC(=O)CNC(=O)OC1CCN2Cc3ccccc3N=C12.Cl (stereo not shown) | -0.36 |
| Cc1ccccc1CN1CCN(S(C)(=O)=O)CC1 | -1.89 |
| O=C(O)c1ccccc1C(=O)NCC(O)c1ccccc1 (stereo not shown) | 12.9 |
| COc1cc(/C=N/NC(N)=O)cc([N+](=O)[O-])c1O | 18.1 |
| COc1ccc(CC(=O)NNC(=O)c2cc(C)[nH]n2)cc1 | 24.3 |
| CC1CCc2nc3ccc(S(=O)(=O)N4CCC(C(=O)NCc5ccccc5Cl)CC4)cc3c(C(=O)O)c2C1 (stereo not shown) | 7.04 |
| COCC(C)n1c(COc2ccccc2F)nnc1SCC(=O)Nc1oc(C)c2c(C)n[nH]c(=O)c12 (stereo not shown) | 8.78 |
| COc1ccccc1NC(C)=O | 6.25 |
| CC(=O)Nc1ccc(OCC(O)Cn2ccnc2)cc1 (stereo not shown) | 27.2 |
| O=C(CN1C(=O)COc2ccccc21)NCc1ccccn1 | -2.72 |
| Cc1ccc(S(=O)(=O)Cc2nc3ccccc3c(=O)[nH]2)cc1 | -13.7 |
| C=CCN1C(=O)c2ccc(C(=O)N(C)CC(=O)Nc3ccc(OCC)c(OCC)c3)cc2C1=O | -35.5 |
| CCCN(CCC)Cc1c(C(=O)N/N=C/c2ccc(Br)cc2)nnn1-c1nonc1N | -15.3 |
| Cc1cc(NC(=O)CCC(=O)N(CC(=O)NC2CCCC2)c2ccc(F)cc2)no1 | -4.83 |
| COC(=O)CCCNC(=O)CN1CC(c2ccccc2)CC1=O (stereo not shown) | -2.25 |
| COCCNC(=O)c1cc(OC)c(OC)cc1[N+](=O)[O-] | 20.1 |
